PubChem BioAssay AID463173 (ICCB-Longwood Screening Facility, Harvard Medical School, 2010)
Screen size: about 52,000 compounds; about 4,300 (8.3%) were called active. Cut-off read from the data, not from the text of the source: active = survival mostly below about 52% (no sharp cut-off); inactive = mostly above about 56%. The list shows a part of the results.

These molecules were tested on DeltatarO mutant (assay: growth inhibition of S. aureus wild type versus tarO mutant, primary screen, teichoic acid synthesis inhibitors, RN4220, OD600 (AID 463173)). Conditions: OD600, 18 h, active compounds read low, screened at 18.75 µg/mL (by protocol).
With Cc1cc(C)c(NC(=O)C(C)n2nc(-c3ccc(C)c(C)c3)ccc2=O)c(C)c1 (configuration not stated) the survival was inactive: 63%. With Cc1ccc(NC(=O)Cc2ccc(-n3c(C)nc4cccnc43)cc2)cc1C the survival was inactive: 98%. In the case of O=C(O)CC1=C(c2cccs2)CCC1=O, the survival is reported as inactive: 102%. With COc1ccc(C(F)(F)F)cc1NC(=O)c1sc2nc(-c3cccs3)ccc2c1N the survival was inactive: 69%. For CC(=O)c1ccc(N2CCN(c3ncnc4c3c(-c3ccccc3)cn4-c3cccc(C)c3)CC2)cc1, the survival was inactive: 113%. For Cc1cccc(N2CCN(c3ncnc4c3nc3n4CCCCC3)CC2)c1C, the survival was inactive: 95%. For CCOC(=O)c1ccc(NC(=O)c2c(-c3c(F)cccc3Cl)noc2C)cc1, the survival was inactive: 59%. For CCC(=O)N1CCc2cc(Br)cc(S(=O)(=O)N3CCC(C(=O)NCCCOC(C)C)CC3)c21, the survival was inactive: 133%. For COC(=O)c1ccccc1NC(=O)c1ccc(COc2ccccc2Cl)o1, the survival was inactive: 63%. In the case of COc1ccc(C2CC(=O)c3cc(-c4nc(-c5cccc(Cl)c5)cs4)c(=O)[nH]c3C2)cc1OC (configuration not stated), the survival is reported as inactive: 142%. For COc1ccccc1CNC(=O)C1CCCN(c2nc3ccccc3n3cccc23)C1 (configuration not stated), the survival was inactive: 53%. For COc1ccc(Cl)cc1C(=O)Nc1sc2c(c1C(=O)OC(C)C)CCCC2, the survival was inactive: 61%. O=C(C1CC1)N1CCc2cc(Br)cc(S(=O)(=O)N3CCN(c4cccc(C(F)(F)F)c4)CC3)c21 was tested, and the survival was inactive: 64%. O=C(Nc1ccccc1)NC1(C(=O)Nc2ccc(-n3cnnn3)cc2)CCCCC1 was tested, and the survival was inactive: 98%. With CC(=O)N1CCc2cc(Br)cc(S(=O)(=O)N3CCN(c4cccc(C(F)(F)F)c4)CC3)c21 the survival was inactive: 150%. With COc1ccccc1NC(=O)C1=C(C)Nc2c(C(=O)Nc3ccc(F)cc3)cnn2C1c1cccc([N+](=O)[O-])c1 (configuration not stated) the survival was inactive: 100%. CCCCN(C)c1nc2c(S(=O)(=O)c3ccc(CC)cc3)nnn2c2ccc(Cl)cc12 was tested, and the survival was inactive: 76%. In the case of COc1ccc(NC(=O)Cn2c(=O)n(-c3ccc(OC)c(OC)c3)c(=O)c3ccccc32)cc1, the survival is reported as inactive: 93%. With COc1cc(C(CC(=O)NCc2ccc(F)cc2)N2Cc3ccccc3C2=O)cc(OC)c1OC (configuration not stated) the survival was inactive: 73%. In the case of CCC1CCCCN1C(=O)Cn1c(=O)n(CCCCCC(=O)NCc2ccccc2)c(=O)c2sccc21 (configuration not stated), the survival is reported as inactive: 69%. CSc1ncc(Cl)c(C(=O)Nc2ccc(NC(C)=O)cc2)n1 was tested, and the survival was inactive: 82%. For COc1ccc(Cl)cc1NC(=O)c1c(NCc2ccc(C)o2)sc2c1CCCCC2, the survival was inactive: 85%. COc1cccc(NC(=O)c2ccc3nc(CCc4ccccc4)oc3c2)c1 was tested, and the survival was inactive: 107%. With CCCn1c2ccccc2c2cnn(CC(=O)N(C)c3ccc(F)cc3)c(=O)c21 the survival was inactive: 134%. With COc1cccc(CSc2nc3ccccc3c3nc(CCn4c(C)nc5ccccc54)nn23)c1 the survival was inactive: 79%. In the case of CCOC(=O)c1cnn(-c2ccc(C(=O)Nc3cc(OC)c(OC)c(OC)c3)cc2)c1N, the survival is reported as inactive: 75%. In the case of CC1CCN(S(=O)(=O)c2cn(CC(=O)Nc3cccc(C(F)(F)F)c3)c(=O)c3ccccc23)CC1, the survival is reported as inactive: 65%. For O=C(CSc1ccccc1)N1CCc2c([nH]c3ccccc23)C1c1ccc(F)cc1 (configuration not stated), the survival was inactive: 76%. Nc1c(-c2nc(-c3cccs3)no2)nnn1-c1ccc(Cl)cc1 was tested, and the survival was inactive: 66%. COc1cccc(C(=O)Nc2cccc(C(=O)OCc3cc(=O)n4nc(C5CC5)sc4n3)c2)c1 was tested, and the survival was inactive: 89%. With CCn1c(C(=O)NCCc2ccc(OC)c(OC)c2)cc2sc(Cl)cc21 the survival was active: 32%. In the case of COC(=O)c1cc2oc3ccccc3c2n1Cc1nc(-c2ccc(OC)cc2)oc1C, the survival is reported as inactive: 77%. With CCCCn1c(SCC(=O)N2CCCCC2)nc2ccccc2c1=O the survival was inactive: 90%. With COc1ccc(SCc2cc(=O)c3cc(Cl)ccc3[nH]2)cc1 the survival was inactive: 70%. For c1ccc(CNc2nc3c(-c4ccccc4)nnn3c3ccccc23)cc1, the survival was inactive: 75%. O=C(Cc1ccc(Cl)cc1)Nc1ccc2nn(-c3ccc(Cl)cc3)nc2c1 was tested, and the survival was inactive: 83%. O=C(NCc1ccc2c(c1)CCN2C(=O)c1ccc(F)cc1)c1cc2ccccc2[nH]1 was tested, and the survival was inactive: 97%. CCn1c(COc2cccc(C)c2)nnc1SCC(=O)NC(C)(C)C was tested, and the survival was inactive: 102%. For COc1ccccc1CNC(=O)CCC(=O)N1CC2CCCN2c2ccccc21 (configuration not stated), the survival was inactive: 99%. CCOc1ccccc1NC(=O)C(=O)NCCc1sc(-c2cccc(F)c2)nc1C was tested, and the survival was inactive: 90%. In the case of CCc1ccc(NCc2cc3cc4c(cc3n(CC(=O)Nc3ccc(C)cc3)c2=O)OCO4)cc1, the survival is reported as inactive: 89%. With COc1ccc(-c2cc(C(F)(F)F)nc(S(=O)(=O)CCCC(=O)Nc3cccc(O)c3)n2)cc1OC the survival was inactive: 76%. For CCC(=O)Oc1ccc(/C=C(\C#N)c2nc3ccccc3[nH]2)cc1OC, the survival was inactive: 47%. For CCOc1ccc(NC(=O)NCc2c(-n3cccc3)sc3c2CCCC3)cc1, the survival was inactive: 87%. CSc1nc(-c2ccccc2F)c(C#N)c(=O)n1C was tested, and the survival was inactive: 100%. With CCOc1ccc(NC(=O)C2CCCN(S(=O)(=O)c3cccc4nonc34)C2)cc1 (configuration not stated) the survival was inactive: 86%. Cc1ccc(Nc2c(-c3cccs3)nc3nc(C)cc(C)n23)cc1 was tested, and the survival was active: 15%. With CC(=O)c1ccc(NC(=O)CSc2nnc3ccc(-c4ccc(Cl)cc4)nn23)cc1 the survival was inactive: 83%. For CCc1ccccc1N1C(=O)N(Cc2ccc(C#N)cc2)c2ccccc2S1(=O)=O, the survival was inactive: 120%. With CC(C)Sc1oc(-c2cccs2)nc1S(=O)(=O)c1ccc(Cl)cc1 the survival was inactive: 66%. CCOc1ccc(OCC)c(NS(=O)(=O)c2cc(-c3cc(C)no3)ccc2C)c1 was tested, and the survival was inactive: 91%. In the case of Cc1ccc(CNC(=O)c2ccc(Cn3c(=O)c4ccccc4n(CC(=O)Nc4ccc(C)cc4C)c3=O)cc2)cc1, the survival is reported as inactive: 79%. In the case of CCOc1ccc(S(=O)(=O)NCCc2sc3nc(-c4ccc(F)cc4)nn3c2C)cc1, the survival is reported as inactive: 67%. In the case of Cc1nc(C)c(C(=O)Nc2ccccc2)s1, the survival is reported as inactive: 70%. In the case of CCn1c2ccccc2c2cc(CN3CCN(Cc4ccccc4F)CC3)ccc21, the survival is reported as active: 7%. CCOc1ccc(CCNC(=O)c2cn(CC)c3ccc(S(=O)(=O)N4CCc5ccccc5C4)cc3c2=O)cc1OCC was tested, and the survival was inactive: 72%. In the case of Cc1ccc(C)c(Nc2nnc(-n3nc(C)cc3C)c3ccccc23)c1, the survival is reported as inactive: 82%. With O=C(Nc1cccc(F)c1)c1ccc2snnc2c1 the survival was inactive: 83%. With CCN(c1ccccc1)S(=O)(=O)c1nnc(NC(=O)c2cccs2)s1 the survival was active: 28%. For Cc1ccc(Cl)cc1-n1ncc2c(NC3CCCCCC3)ncnc21, the survival was inactive: 130%. With Cc1ccc(C(=O)N2CCN(c3ncnc4c3cnn4-c3ccccc3)CC2)cc1 the survival was inactive: 63%. COc1cc(C(=O)Nc2ccc3nc(SCc4ccc(C)cc4)sc3c2)cc(OC)c1OC was tested, and the survival was inactive: 98%. With CC(=O)c1ccc(S(=O)(=O)Nc2cccc(-c3ccc(N4CCCCCC4)nn3)c2)cc1 the survival was inactive: 97%. For CCCC(=O)N1CCN(c2nc3c(OC)ccc(C)c3s2)CC1, the survival was inactive: 55%. For CC(C)(C)OC(=O)N1CCC(c2c(C(=O)N3CCN(C(=O)c4ccco4)CC3)cnn2-c2cccc(F)c2)CC1, the survival was inactive: 73%. CCOc1ccc(-n2c(SCC(=O)N3CCOCC3)nc3c([nH]c4ccccc43)c2=O)cc1 was tested, and the survival was active: 0%. For CC(C)CC(=O)Nc1ccc(Cl)cn1, the survival was inactive: 76%. Cc1c(S(=O)(=O)c2cccc(Cl)c2)nnn1-c1cccc(C(F)(F)F)c1 was tested, and the survival was inactive: 70%. Cc1ccc(CNC(=O)C(CC(C)C)NS(=O)(=O)c2ccc3c(c2)oc(=O)n3C)cc1 (configuration not stated) was tested, and the survival was inactive: 86%. For O=C(NCc1ccc(Cl)cc1)c1cnc(N2CCCCC2)c2ccccc12, the survival was inactive: 84%. For Cc1cccc(N2CCN(CCNC(=O)C3COc4ccccc4C3)CC2)c1C (configuration not stated), the survival was inactive: 112%. In the case of O=c1cc(CSc2nnc(-c3ccccc3)o2)c2ccccc2[nH]1, the survival is reported as inactive: 95%. For C/C=C(\C)C(=O)OC1c2c(ccc3ccc(=O)oc23)OC(C)(C)C1OC(C)=O (configuration not stated), the survival was inactive: 60%. In the case of COc1ccc(CNC(=O)C2CCN(Cc3nc(-c4ccc(Cl)cc4)oc3C)CC2)cc1, the survival is reported as inactive: 100%. Cc1ccc(S(=O)(=O)NCCS(=O)(=O)N2CCN(c3ccccc3)CC2)cc1 was tested, and the survival was inactive: 75%. Cc1nc(N2CCOCC2)c2c(C(=O)Nc3cccc(C(F)(F)F)c3)c(C)oc2n1 was tested, and the survival was inactive: 101%. In the case of Cc1ccc(Cc2nc3ccccc3nc2SCC(=O)Nc2ccc3c(c2)OCO3)cc1, the survival is reported as inactive: 88%. With CSc1ccc(CCNC(=O)CCc2c(C)nc3c(c(C)nn3-c3ccccc3)c2C)cc1 the survival was inactive: 89%. O=C(NC1CC(=O)N(c2cccc(F)c2)C1)c1ccc(Br)o1 (configuration not stated) was tested, and the survival was inactive: 101%. With CCOC(=O)c1cc(S(=O)(=O)N2CCN(c3ccccc3)CC2)[nH]n1 the survival was inactive: 77%. In the case of Cc1ccc2nc(N(Cc3cccnc3)C(=O)COc3ccccc3)sc2c1, the survival is reported as inactive: 113%. CCOC(=O)Cn1c(=O)oc2cc(S(=O)(=O)N3CCN(c4cccc(C)c4C)CC3)ccc21 was tested, and the survival was inactive: 67%. With O=C(Nc1c(Cl)cccc1Cl)c1cc(-c2ccc3c(c2)OCO3)on1 the survival was active: 39%. With COC(=O)c1c(-c2ccc(Cl)cc2)noc1N1CCN(c2ccc(C)cc2C)CC1 the survival was inactive: 99%. CC(C)c1ccc(NC(=O)C2CCCN(S(=O)(=O)c3cccc4cccnc34)C2)cc1 (configuration not stated) was tested, and the survival was inactive: 71%. CCCCN(C)CCCNC(=O)C1CCN(c2nc3ccc(CC)cc3s2)CC1 was tested, and the survival was inactive: 71%. O=C(O)C1C2C=CC(C2)C1C(=O)N(Cc1ccccc1)Cc1ccccc1 (configuration not stated) was tested, and the survival was inactive: 80%.
